For the test, the system named is Plasmodium falciparum. The test is described as follows: Primary screen in NF54 nanoGlo assay, in single point, at 2uM, 72h; a lower Z score goes with more inhibition. In kind it is functional, Erythrocyte. Particulars: timepoint 72 hour.

Where “and” joins values, the source holds several entries; their conditions need not be identical. Equal entries are not always repeated. The whole screen tested about 150,000 compounds, of which about 540 (0.36%) showed an effect of 50% or more. The list shows a part of the results.

Consider `Fc1ccc(-c2noc([C@@H]3Cc4[nH]cnc4CN3CCCc3ccccc3)n2)cc1Cl`, for which the “% Inhibition” value is -8% and the Z score came to 1.18.

On to `Cc1nnsc1C(=O)Nc1nc2ccccc2[nH]1`, for which the “% Inhibition” value was -10% and the Z score is 1.32.

As for `O=S1(=O)NCCN1c1cccc(Br)c1`, the “% Inhibition” value is on record as -10% and the Z score came to 1.29.

Take `CCN(CC)c1onc(-c2ccccc2)c1CN(Cc1ccco1)C(C)=O`: the “% Inhibition” value is on record as -1% and the Z score is reported as 0.11.

Regarding `Cn1cnc([C@H]2CN(C(=O)NCc3cccc(Cl)c3)C[C@@H]2N)c1`, the “% Inhibition” value is 3% and the Z score is on record as -0.57.

With `COc1cccc(-c2nc(CC(=O)OCC(=O)Nc3ccc(N4CCCCC4)cc3)cs2)c1`, the “% Inhibition” value worked out at 1% and the Z score is -0.09.

Take `CC(CCc1ccccc1)NC(=O)C(C)NS(=O)(=O)c1ccccc1F` (stereo unspecified): the “% Inhibition” value worked out at 18% and the Z score is -3.53.

As to `CS(=O)(=O)N(Cc1ccsc1)CC(F)(F)F`, the “% Inhibition” value was -33% and the Z score is 5.57.

As to `O=C(N[C@H]1C[C@@H]2C[C@H]1CN2C(=O)c1ccc(C(F)(F)F)s1)c1cccnc1`, the “% Inhibition” value is listed as 36% and the Z score is recorded as -4.02.

Consider `O=C(Cc1ccc(-c2ccccc2)cc1)Nn1cnc2ccccc2c1=O`, for which the “% Inhibition” value turned out to be 4% and the Z score is -0.77.

`CS(=O)(=O)[C@H]1CCN(S(=O)(=O)CCc2ccccc2)C1`: the “% Inhibition” value was -10% and the Z score amounted to 1.78.

In the case of `Cc1cccc(-c2noc(Cc3ccc(-c4ccccc4)cc3)n2)c1`, the “% Inhibition” value is on record as -14% and the Z score amounted to 1.98.

Consider `O=C(NCCN1Cc2ccccc2O[C@H](c2ccccc2)C1)C1=CCCCC1`, for which the “% Inhibition” value was -12% and the Z score is given as 2.11.

Consider `O=C1C[C@]2(CCN(c3nccc(C(F)(F)F)n3)C2)C(=O)N1`, for which the “% Inhibition” value worked out at 10% and the Z score was -1.92.

Turning to `CC(C)(C)NC(=O)CN1CC(c2ccccc2)(c2ccccc2)CCC1=O`, the “% Inhibition” value is 8% and the Z score is reported as -1.02.

As to `CN1N=C(C(=O)Nc2nc3c(Cl)c(Cl)ccc3s2)CCC1=O`, the “% Inhibition” value was -6% and the Z score turned out to be 0.88.

In the case of `Cc1cc(C)c(CNS(=O)(=O)C2CCOC(C)C2)c(C)c1` (stereo unspecified), the “% Inhibition” value is given as -9% and the Z score is on record as 1.56.

In the case of `COC[C@@H]1CCCN1Cc1ccc2c3c(cccc13)C(=O)OC2`, the “% Inhibition” value is -8% and the Z score is 1.54.

Take `COc1ccc(NC(=O)N2CCC(O)(c3csc(CN4CCN(C)CC4)n3)CC2)cc1`: the “% Inhibition” value is on record as 27% and the Z score is given as -3.

As to `O=C(N[C@H]1CCN(Cc2noc(-c3ccccc3)n2)C1)c1ccc(F)c(F)c1`, the “% Inhibition” value was -10% and the Z score came to 1.95.

Turning to `COc1cccc2c1CN(C(=O)NC1CCC(=O)NC1C1CCCO1)C2` (stereo unspecified), the “% Inhibition” value is on record as -12% and the Z score turned out to be 2.33.

As to `CCCn1nnnc1CNc1cc(Cl)ccc1C(N)=O`, the “% Inhibition” value was found to be 8% and the Z score is recorded as -0.64.

For the molecule `COC(=O)N1CCCC[C@H]1c1nc(C)nn1CCc1ccccc1`, the “% Inhibition” value was -8% and the Z score is reported as 1.24.

As to `CC(C)Nc1ccc(F)cc1NC(=O)C[C@H]1CCOC1`, the “% Inhibition” value is -7% and the Z score came out at 1.

Consider `Cc1onc(-c2ccccc2)c1C(=O)N1CCC[C@H]1C(=O)O`, for which the “% Inhibition” value was -5% and the Z score came to 0.8.

As for `Cc1cc(C)cc(NC(=O)[C@H]2CCCN(c3ncnc4oc(C)c(C)c34)C2)c1`, the “% Inhibition” value stood at 5% and the Z score is reported as -0.57.

As to `Cc1cccc(-c2nnc(C)c(NCCCN3CCOCC3)n2)c1`, the “% Inhibition” value is given as 1% and the Z score is listed as -0.26.

As for `CCC(C)CN1C(=O)C(Cc2ccccc2)NC12CCN(C(=O)c1ccc(OC)cc1)CC2` (stereo unspecified), the “% Inhibition” value is listed as -15% and the Z score was 1.48.

Turning to `CC(C)Cc1cc(CNS(=O)(=O)[C@H]2CCS(=O)(=O)C2)on1`, the “% Inhibition” value is -5% and the Z score was 0.49.

As for `COC(=O)CCC(=O)N1CCC(C)CC1`, the “% Inhibition” value is -3% and the Z score came to 0.49.

Regarding `O=C1CC[C@@]2(CCCO2)CCN1Cc1ccncc1`, the “% Inhibition” value is -14% and the Z score amounted to 2.79.

`NC(=O)c1cccnc1Oc1ccc(Cl)c(CN2CCCC2)c1Cl`: the “% Inhibition” value stood at 11% and the Z score is reported as -1.56.

Consider `Cc1ccc(C2=C[C@@H](c3ccc(C)cc3)n3nnnc3N2CC(=O)Nc2ncc(C)s2)cc1`, for which the “% Inhibition” value was -3% and the Z score was determined as 0.27.

With `COCC(COC)NC(=O)N1CC(C)C(C)(CO)C1` (stereo unspecified), the “% Inhibition” value is recorded as 1% and the Z score was -0.17.

In the case of `CC(=O)Nc1ccc(C)cc1S(=O)(=O)N1CCN(Cc2nc3ccc(Cl)cc3o2)CC1`, the “% Inhibition” value is -21% and the Z score is 1.88.

As to `O=C1[C@H]2Cc3ccccc3CN2C(=O)CN1Cc1ccc(F)cc1`, the “% Inhibition” value is on record as -7% and the Z score stood at 0.87.

Turning to `O=C1NCCN(C(=O)Cn2ccccc2=O)[C@H]1Cc1ccccc1`, the “% Inhibition” value turned out to be 2% and the Z score was -0.36.

In the case of `Cc1nn(CCO[C@@H]2CCCCO2)c(C)c1Br`, the “% Inhibition” value is given as -13% and the Z score came out at 1.75.

For `CC1=C(C(=O)Nc2ccccc2)C2(CCCC2)[C@@H](C(N)=O)C(=O)N1`, the “% Inhibition” value turned out to be 10% and the Z score is reported as -1.28.

With `O=C(CC[C@@H]1NC(=O)N(Cc2ccc3c(c2)OCO3)C1=O)N1CCc2ccccc2C1`, the “% Inhibition” value is recorded as -4% and the Z score is reported as 0.57.

Regarding `OC[C@H]1CN(c2nc3ccc(Cl)cc3s2)C[C@H]1CN1CCCCC1`, the “% Inhibition” value is -1% and the Z score is listed as 0.23.

As for `N#Cc1cccc(C(=O)N2CCC3(CC2)C[C@H](CO)N(C(=O)c2ccccc2)C3)c1`, the “% Inhibition” value turned out to be 1% and the Z score is on record as -0.08.

On to `COCCC(=O)Nc1cc(C(=O)N[C@H]2CCS(=O)(=O)C2)cc2nc(-c3ccccc3)n(C)c12`, for which the “% Inhibition” value worked out at 7% and the Z score is -0.9.

Consider `CC1(C)C(NC(=O)C2CCCC2)C2CCCN(c3ncc(Cl)cn3)C21` (stereo unspecified), for which the “% Inhibition” value is reported as -1% and the Z score is on record as 0.2.

As to `COC(=O)c1ccc(C[N+]2(C[C@H]3COC4(CCCCC4)O3)CCCC2)cc1`, the “% Inhibition” value is listed as -5%. In addition, the Z score (2 µM) is 0.44 and 0.65.

As to `Cc1ccnc(-n2nccc2NC(=O)N(C)CC[C@H]2CCCCN2C)c1`, the “% Inhibition” value turned out to be 7% and the Z score is given as -0.86.

For `CCCC[C@@]1(O)COC2(CN(C(=O)c3cccnc3C)C2)C1`, the “% Inhibition” value is listed as 0% and the Z score came to 0.04.

For the molecule `CC1(C(=O)NC[C@H]2CCCCN(C(=O)C3(C)CCC3)C2)CCC1`, the “% Inhibition” value is recorded as -18% and the Z score was found to be 3.46.

Take `O=C(NCCC1=CCCCC1)c1ccc(NC(=O)C2CCC2)cc1`: the “% Inhibition” value is given as -10% and the Z score was found to be 1.18.

Regarding `O=C(NS(=O)(=O)c1ccsc1)C1CCC1`, the “% Inhibition” value is -4% and the Z score worked out at 0.77.

In the case of `CC[C@H](C)S(=O)(=O)NC(=O)c1cnn(C)c1`, the “% Inhibition” value is -4% and the Z score worked out at 0.33.

As for `COC(C)(C)C[C@H](C)NC(=O)NCc1cc(C)on1`, the “% Inhibition” value is on record as 0% and the Z score is -0.06.

For `CN(C(=O)C1CCC(OC(F)F)CC1)c1ccc(-c2ccccc2)nn1` (stereo unspecified), the “% Inhibition” value is reported as -9% and the Z score is listed as 1.

(Values after ChEMBL document CHEMBL4888484, “Replenishing the malaria drug discovery pipeline: Screening and hit evaluation of the MMV Hit Generation Library 1 (HGL1) against asexual blood stage Plasmodium falciparum ,using a nano luciferase reporter read-out” (2022).)
